# Sequences with one replicate were seen in a single cluster, so their values are uncertain.
# Tested on: ATP
# Assay: switch fluorescence ratio, 500 uM ATP over buffer (Cy3 cluster intensity, sum of 5 cycles each) (fold (ratio)); higher = stronger signal-on switching upon ATP binding; sequences stand for … in TCGTCGGCAGCGTCAGATGTGTATAAGAGACAGTTTTTTTTTTTTTTTTTTTTTTTTT…TC
# Conditions: aptamer strand: ATP DNA aptamer (quencher-CACCTGGGGGAGTATTGCGGAGGAAGG + anchor), 100 nM annealed; ATP concentration: 500 uM; one replicate
# In short: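 After annealing to 100 nM quencher-labelled ATP aptamer, Cy3-labelled switching-strand clusters on a modified Illumina MiSeq flow-cell were imaged in selection buffer. A second image followed after 15 min with 500 uM ATP at 22 °C, and five such buffer/ATP cycles were done, each separated by NaOH stripping and re-annealing. The fluorescence ratio, averaged per switch-domain sequence, is summed target-cycle over summed buffer-cycle Cy3 intensity per cluster, with clusters outside 100-1000 RFU excluded.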
# 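Further: ATP exposure 15 min at 22 °C before imaging.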
row,Sequence,switch fluorescence ratio
1,CCAGTAGTGC,1.59
2,CCAGTATAGG,0.967
3,CCAGTCATTG,1.02
4,CCAGTCCCTG,1.04
5,CCAGTCCGTT,1.03
6,CCAGTCGTTT,1.01
7,CCAGTGCGAG,1.01
8,CCAGTTAGTA,1.01
9,CCAGTTGATC,0.948
10,CCAGTTTAG,0.962
11,CCATAAATAT,1.01
12,CCATAAGTTT,0.96
13,CCATACAAGC,1.12
14,CCATACCAGG,2.5
15,CCATAGCGT,2.18
16,CCATAGTCTG,1.08
17,CCATATTATC,0.997
18,CCATCCATAT,1.02
19,CCATGAATCA,1.03
20,CCATGACGCA,2.1
21,CCATGACGT,1
22,CCATGAGGC,0.988
23,CCATGCCTGT,0.967
24,CCATGGAATG,1.02
25,CCATGGACGG,1.04
26,CCATGGATCC,1

row,Sequence,switch fluorescence ratio
1,CCATGGCTAT,1.1
2,CCATTAC,1.26
3,CCATTAGTTA,1.03
4,CCATTATCGA,1.02
5,CCATTATGA,1.05
6,CCATTATGGC,0.955
7,CCATTCAGGA,1.06
8,CCATTCAGTA,1.01
9,CCATTCTCAC,1.02
10,CCATTGATAT,0.985
11,CCATTGGAGC,1.01
12,CCATTGGCTT,1.02
13,CCATTGGGGG,0.966
14,CCATTGTAAC,1.01
15,CCATTGTCAC,1.05
16,CCATTTCAAG,0.982
17,CCATTTGGT,1.04
18,CCCAAAAATT,1.06
19,CCCAAACTAG,0.992
20,CCCAATAGGT,1.12
21,CCCACGATGA,1.16
22,CCCAGAAGCG,1
23,CCCATAAAA,1.02
24,CCCATAGGGG,1.06
25,CCCATCCTTT,0.998
26,CCCATCGAG,0.955

row,Sequence,switch fluorescence ratio
1,CCCATCGGGC,1.01
2,CCCATGAGTT,1.01
3,CCCATTGTCA,0.942
4,CCCATTTCCT,1.02
5,CCCCAAGTTT,1.03
6,CCCCAATATT,1.43
7,CCCCATCCGA,1.08
8,CCCCATGAAG,1.03
9,CCCCATGCTC,1.29
10,CCCCCAGGGA,2.32
11,CCCCCATGCA,1.75
12,CCCCCTTTTT,1.83
13,CCCCGGGAAG,1.28
14,CCCCGGGCGT,1.43
15,CCCCGGTTAT,1.65
16,CCCCGTACGG,1.01
17,CCCCGTTTTG,1.1
18,CCCCTAGAAT,0.964
19,CCCCTTCCAG,1.2
20,CCCCTTGTCA,1.03
21,CCCCTTTATG,1.01
22,CCCGAAGTAA,1.58
23,CCCGCGGGCA,1.01
24,CCCGCGGGG,1.08
25,CCCGCGGGTG,3.55
26,CCCGCTTTGG,1.42

row,Sequence,switch fluorescence ratio
1,CCCGGGCAAC,1.41
2,CCCGGGGTAA,0.997
3,CCCGGGGTCA,0.966
4,CCCGGTAGTT,1.03
5,CCCGGTTCGT,1.02
6,CCCGTCAGAT,1.15
7,CCCGTGAACT,1.1
8,CCCGTGCTAA,1.06
9,CCCGTGGCAC,1.22
10,CCCGTGGCTG,0.998
11,CCCGTGGGTC,1
12,CCCTAATAG,1.21
13,CCCTAATTAT,0.981
14,CCCTATAAAA,1.01
15,CCCTATGTTC,0.992
16,CCCTATTCG,0.986
17,CCCTATTGAT,0.97
18,CCCTCTTGG,1.03
19,CCCTCTTTTC,1.27
20,CCCTGACACG,1.01
21,CCCTGACATG,0.891
22,CCCTGATCAA,1.08
23,CCCTGATCTC,1.12
24,CCCTGCACCT,1.55
25,CCCTGGTTGG,1.05
26,CCCTGTGACC,1.02

row,Sequence,switch fluorescence ratio
1,CCCTGTGCGT,1.05
2,CCCTTATTTG,0.997
3,CCCTTGAAAT,1.02
4,CCCTTGCT,1.07
5,CCCTTTCGTA,0.998
6,CCCTTTTCTG,1.01
7,CCGAAAGATG,1.13
8,CCGAAGGGAG,1.02
9,CCGACCATCG,1.3
10,CCGACCGTAG,3.01
11,CCGACCTCAT,3.01
12,CCGAGATGGG,1.05
13,CCGAGGATGT,1.04
14,CCGAGGGGCT,1.07
15,CCGAGTCTAG,1.49
16,CCGAGTGCCA,1.87
17,CCGAGTTAGT,1.16
18,CCGATATCGC,1.17
19,CCGATATTGT,1.01
20,CCGATCCCTT,1.03
21,CCGATTACGT,1.23
22,CCGATTTCCA,1.01
23,CCGCACCACG,3.27
24,CCGCAGAAAG,3.17
25,CCGCAGAGAT,4.92
26,CCGCAGTAGG,3.62

row,Sequence,switch fluorescence ratio
1,CCGCATTCAG,4.28
2,CCGCCACTCT,3.02
3,CCGCGCGGAT,1.51
4,CCGCGCGTCT,1.24
5,CCGCGGAGTT,0.997
6,CCGCGGATTG,0.998
7,CCGCGGCTGA,1.12
8,CCGCGTACTA,5.78
9,CCGCTATTTT,2.25
10,CCGCTGAAA,1.05
11,CCGCTGAGCC,2.38
12,CCGCTGATCA,1.45
13,CCGCTTAGCA,1.65
14,CCGCTTGAGG,1.06
15,CCGGAAGTTT,0.986
16,CCGGACAGAT,1.12
17,CCGGACGAAA,5
18,CCGGAGACAG,4.45
19,CCGGAGAGCC,1.51
20,CCGGATGTGT,1.04
21,CCGGCAATGG,1.29
22,CCGGCCTGAA,0.99
23,CCGGCGAATA,3.75
